Patent US7572600B2, “Enzymatic activities in chemokine-mediated inflammation” (Chemocentryx, Inc., priority 2004, dated 2009)

Tested on: THP-1 cells
Assay: THP-1 chemotaxis assay
Type: cell-based, human
Method: Chemotaxis assay. L1.2-CCR1 transfectants, THP-1 cells, human monocytes and human neutrophils were collected by centrifugation and resuspended in HBSS containing 0.1% BSA. Chemotaxis assays were performed in 96-well ChemoTx® microplates (Neuroprobe, Rockville, Md.) as follows. Chemokines were added to the lower wells (final volume 29 μL), and 20 μL of cell suspension (5×10^6 cells/mL) was added to the polycarbonate filter (3 μm pore size for neutrophils, 5 μm for other 3 cell types). After incubation at 37° C. in the presence of 5% CO2 for 1 hr (neutrophils), 90 min (monocytes) or 2 h (THP-1 and L1.2-CCR1), cells were removed from the upper surface of the filter by scraping. Cells that migrated into the lower chamber were quantified by using the CyQuant cell proliferation assay kit (Molecular Probes, Eugene, Oreg.) and analyzed with a Tecan (Durham, N.C.) fluorimeter (excitation at 480 nm, emission at 530 nm). Data were analyzed and plotted in arbitrary units of fluorescence using Prism (GraphPad Software, San Diego, Calif.).

Molecule	fold less potent than CCL15Δ24/LKN-1
CCL5/RANTES: traditional CCR1 ligand chemokine	approximately 3 fold
CCL3/MIP-1α: traditional CCR1 ligand chemokine; unlabelled homologous competitor in binding (protein) ADTPTACCFSYTSRQIPQNFIADYFETSSQCSKPGVIFLTKRSRQVCADPSEEWVQKYVSDLELSA	approximately 3 fold
